This test addresses T1, bio-PP1c^1-322 (biotinylated PP1c) (human, UniProt P36873, biotin on the N-terminal biotin acceptor peptide (BAP)).
T1 construct: human PP1cγ, catalytic subunit of protein phosphatase 1, aa 1-322; Only partially pure before capture; also called PP1cγ; PP1γc^1-322; source: Sf9 insect cells (baculovirus, pDW464, biotinylated in vivo by BirA), partially purified (HiTrap Q, Superdex 200); not shown: biotin acceptor peptide (BAP), N-terminal, kept
Nature of the test: pull-down; partially purified bio-PP1c held on neutravidin agarose beads, washed, then incubated with or without 10 μM R15 (A or B) overnight at 4°C in IP buffer (50 mM Tris pH 7.5, 100 mM NaCl, 0.1 mM EGTA, 0.05% Tween 20, 0.1% NP40); Coomassie-stained gel, streptavidin-HRP blot. The note with it: both partners purified.

T1 sequence (P36873 1-322): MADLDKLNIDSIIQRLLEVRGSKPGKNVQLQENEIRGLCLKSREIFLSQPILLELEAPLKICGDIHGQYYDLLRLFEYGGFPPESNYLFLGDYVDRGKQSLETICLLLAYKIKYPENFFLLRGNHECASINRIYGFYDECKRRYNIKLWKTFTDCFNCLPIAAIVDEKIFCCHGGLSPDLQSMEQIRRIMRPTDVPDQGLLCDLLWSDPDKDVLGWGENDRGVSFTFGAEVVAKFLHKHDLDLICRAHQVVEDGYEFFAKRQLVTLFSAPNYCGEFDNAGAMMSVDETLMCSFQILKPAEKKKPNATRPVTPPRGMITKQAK

B1: MBP-R15A^[…]-His (domain or fragment, human)
chain: EAECPPCIPPPSAFLKAWVYWPGEDTEEEEDEEEDEDSDSGSDEEEGEAEASSSTPATGVFLKSWVYQPGEDTEEEEDEDSDTGSAEDEREAETSASTPPASAFLKAWVYRPGEDTEEEEDEDVDSEDKEDDSEAALGEAESDPHPSHPDQRAHFRGWGYRPGKETEEEEAAEDWGEAEPCPFRVAIYVPGEKPPPPWAPPRLPLRLQRRLKRPETPTHDPDPETPLK[… about 80 residues …]APIPALTQTLPS
notes: PPP1R15A (R15A), regulatory subunit of protein phosphatase 1, […]; Construct in pMAL-c5x as described in Das et al., 2015; also called PPP1R15A; source: E. coli BL21-Gold (DE3) pLysS, purified (HisTrap, MBPTrap); not shown: MBP, N-terminal, kept; His6, C-terminal, kept
As to B1, the binding result is given as “binds”.

For the origin of these results see publication PMC6108835, “Target-Based Discovery of an Inhibitor of the Regulatory Phosphatase PPP1R15B” (Cell, 2018).
